Measured values reported in patent publication US20250074972A1, “ANTIBODIES AND METHODS FOR GENERATING THE SAME” (priority 2021, published 2025).

T1: immobilised Phr2 peptide (Candida albicans, UniProt O13318)
T1 construct: purchased
T1 sequence (O13318 whole entry, looked up): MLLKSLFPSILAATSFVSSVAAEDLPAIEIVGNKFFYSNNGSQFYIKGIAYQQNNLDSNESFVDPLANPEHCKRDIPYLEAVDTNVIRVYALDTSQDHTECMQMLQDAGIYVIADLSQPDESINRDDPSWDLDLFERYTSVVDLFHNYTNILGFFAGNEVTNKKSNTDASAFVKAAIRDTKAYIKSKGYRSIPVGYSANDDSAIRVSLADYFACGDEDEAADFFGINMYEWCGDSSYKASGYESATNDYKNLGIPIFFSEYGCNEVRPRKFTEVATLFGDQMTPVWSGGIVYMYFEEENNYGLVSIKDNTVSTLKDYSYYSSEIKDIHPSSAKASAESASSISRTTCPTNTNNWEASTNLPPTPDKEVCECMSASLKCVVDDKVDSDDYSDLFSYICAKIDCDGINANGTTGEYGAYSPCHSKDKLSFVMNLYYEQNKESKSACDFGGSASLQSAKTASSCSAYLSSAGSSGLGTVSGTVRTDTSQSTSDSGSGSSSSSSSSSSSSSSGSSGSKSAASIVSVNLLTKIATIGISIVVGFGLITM

B1: 1G4: anti-Pga31 single chain antibody; SEQ ID NO: 4 (protein)
scFv: EVQLLESGGGLVQPGGSLRVSCAASGFTFNSYAMSWVRQAPGKGLEWVSTVSGSGGSTYYADSVKGRFTISRDNSKNTLYLQMNSLRAEDTAVYYCARGYFDLWGRGTLVTVSSLEGGGGSGGGGSGGGAS[letters of about 100 residues omitted]
modifications: 1G4 Amino Acid Sequence
B2: 3C5: Phr2 antibody; SEQ ID NO: 32 (protein)
scFv: EVQLLESGGGVVQPGRSLRLSCAASGFTFSSYGMHWVRQAPGKGLEWVAVISYAGSNKYYADSVKGRFTISRDNSKNTLYLQMNSLRAEDTAVYYCAKGQRMDVWGKGTMVTVSSLEGGGGSGGGGSGGGAS[letters of about 100 residues omitted]
modifications: 3C5 Amino Acid Sequence

Legend:
[1] = tested on: total cell lysates of WT C. albicans (SC5314); assay: Pga31 scAbs binding ELISA on total cell lysates of WT C. albicans treated with or without caspofungin; design: species or system Candida albicans; conditions: absorbance 450 nm, cells treated or untreated with 0.032 μg/ml caspofungin
Description: (§1) The reaction was stopped using 1 M H2SO4 and the absorbance values measured using a microplate reader at absorbance 450 nm. For total cell lysate ELISA, C. albicans WT and pga31 single mutant strain overnight cultures were inoculated into fresh YPD at OD600 nm of 0.1-0.2, grown for 3-4 h at 30° C. until OD of 0.5-0.6 was reached and then treated with caspofungin (0.032 μg/ml) for 90 min. After 90 min growth cells were harvested, centrifuged for 5 min at 4000 rpm and washed and cell lysate was prepared. This was used to coat ELISA plates at 37° C. for 1 h, plates were washed and blocked with 2% MPBS as before, followed by the two-fold serial dilution of scAb samples.

[2] = tested on: cell lysates of pga314 mutant strain; assay: Pga31 scAbs binding ELISA on cell lysates of pga31 mutant strain; design: species or system Candida albicans; conditions: with or without 0.032 μg/ml caspofungin
Description: as §1

[3] = target: T1, immobilised Phr2 peptide; assay: Phr2 scAbs binding ELISA, immobilised Phr2 peptide
[4] = tested on: other CWP peptides; assay: Phr2 scAbs cross reactivity ELISA, other CWP peptides; assay type: binding, Candida albicans

Row | Molecule | scAb binding to lysates of caspofungin treated versus untreated cells [1] | scAb binding to mutant strain lysate [2] | binding to immobilised Phr2 peptide [3] | cross reactivity to other CWP peptides [4]
1 | B1 | increase in scAb binding | lack of scAb binding |  | 
2 | B2 |  |  | Specific binding | No cross reactivity
